This note sets out measurements from the supplement of paper PMC10600219.

Counter-ions that a name gives are not always drawn. In all, about 2,800 compounds were measured (“cell viability relative to vehicle”: median about 0.98, lowest 2% from about 0.45 on). The list shows a part of the results.

The test system of the assay is NCI-H2228 alectinib-DTP. In words: cell viability relative to vehicle (fraction of vehicle); NCI-H2228 is an ALK-positive lung cancer line and DTP means drug-tolerant persister; higher = less growth inhibition. The following applies: 100 nM; treatment time 6 days. The method, boiled down: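 Drug-tolerant persister NCI-H2228 cells, produced by 13 days in 1000 nM of a targeted drug, and their parental counterparts were seeded into 384-well plates and, the following day, given the 3114-agent TargetMol anti-cancer compound library at 100 nM or DMSO vehicle. After 6 days, the CellTiter-Glo 3D Cell Viability Assay was used to read ATP. Each entry reports viability compared with vehicle-treated cells.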
`CC(C)(C)c1ccc(C(O)CCCN2CCC(C(O)(c3ccccc3)c3ccccc3)CC2)cc1` (stereo not given) [Terfenadine] displayed a cell viability of 0.871. The result for `Cc1ccc2c(=O)c3cccc(CC(=O)O)c3oc2c1C` reads 1.01; that for `C=C1/C(=C\C=C2/CCC[C@]3(C)[C@@H]([C@H](C)/C=C/[C@H](C)C(C)C)CC[C@@H]23)C[C@@H](O)C[C@@H]1O` [Doxercalciferol], 0.866. The result for `CC(C(=O)O)c1ccc2c(c1)CC(=O)c1ccccc1S2` (stereo not given) [Zaltoprofen] reads 1.09; that for `CN(C)c1ccc(C(=C2C=CC(=[N+](C)C)C=C2)c2ccc(N(C)C)cc2)cc1` [Crystal Violet], 0.901.

In the case of `CC(=O)[C@H]1CC[C@H]2[C@@H]3CC=C4C[C@@H](O)CC[C@]4(C)[C@H]3CC[C@]12C` [Pregnenolone], the cell viability stood at 0.951.

The molecule `Cc1nc(-c2ccc(OCC(C)C)c(C#N)c2)sc1C(=O)O` [Febuxostat] yielded a cell viability of 1.12.

In turn, `COc1cc(O)c2c(=O)cc(-c3ccc(O)cc3)oc2c1` [Genkwanin] gave a cell viability of 1.15. `CC(C)c1ccc2c(c1)c(SC(C)(C)C)c(CC(C)(C)C(=O)O)n2Cc1ccc(Cl)cc1` came in with a cell viability of 1.06. The molecule `Cn1cc(-c2cc(Oc3cc(F)c(NC(=O)C4(C(=O)Nc5ccccc5)CC4)cc3F)ccn2)cn1` yielded a cell viability of 1.06. The result for `CCN1CCN(Cc2ccc(-c3cc4c(N[C@H](C)c5ccccc5)ncnc4[nH]3)cc2)CC1` reads 0.839; that for `Cc1nc(Nc2ncc(C(=O)Nc3c(C)cccc3Cl)s2)cc(N2CCN(CCO)CC2)n1` [Dasatinib], 0.348. For `Cc1nc(Nc2ncc(C(=O)Nc3c(C)cccc3Cl)s2)cc(N2CCN(CCO)CC2)n1` [Dasatinib monohydrate] the value was 0.489; for `CCN(CCO)CCCC(C)Nc1ccnc2cc(Cl)ccc12` (stereo not given) [Hydroxychloroquine sulfate], 0.922. `COc1cc(N2CCC(N3CCN(C)CC3)CC2)ccc1Nc1ncnc(Nc2ccccc2S(=O)(=O)C(C)C)n1` displayed a cell viability of 0.933. On to `NC(=O)c1ccc[n+]([O-])c1` [Nicotinamide-N-oxide], for which the cell viability is 1.17. For `COc1cc([C@@H]2c3cc4c(cc3[C@@H](O[C@@H]3O[C@@H]5CO[C@@H](c6cccs6)O[C@H]5[C@H](O)[C@H]3O)[C@H]3COC(=O)[C@H]23)OCO4)cc(OC)c1O` [Teniposide] the value was 0.653.

Take `COc1ccc(-c2coc3cc(O)ccc3c2=O)cc1O` [Calycosin]: the cell viability was 1.01. The result for `O=C1NC(=O)/C(=C/c2ccc3c(c2)OC(F)(F)O3)S1` reads 1.03. Consider `CC(=O)N1CCC2(CC1)c1cc(C#C[C@H]3O[C@H](CO)[C@@H](O)[C@H](O)[C@@H]3O)ccc1-c1ccc(C#C[C@H]3O[C@H](CO)[C@@H](O)[C@H](O)[C@@H]3O)cc12` [Antibiotic-202], for which the cell viability was found to be 1.07.

On to `CN(C)CCCN1c2ccccc2Sc2ccc(Cl)cc21` [Chlorpromazine hydrochloride], for which the cell viability came to 1.05. For `Nc1ccc(C(=O)Nc2cccc(-c3nc(N4CCOCC4)c4oc5ncccc5c4n3)c2)cn1` the value was 0.986; for `O=C(O)c1c[nH]c2cc(Cl)c(-c3ccc(C4(O)CCC4)cc3)cc12`, 0.943. The molecule `O=c1ccc2ccccc2o1` [Coumarin] returned a cell viability of 1.18. `Cc1nc(-c2cccnc2)sc1C(=O)Nc1ccccc1-c1cn2c(CN3CCOCC3)csc2n1`: the cell viability worked out at 0.972. For `Cc1[nH]c2ccccc2c1CCNCc1ccc(/C=C/C(=O)NO)cc1` [Panobinostat], the cell viability was 0.22. `COc1ccnc(C[S+]([O-])c2nc3cc(OC(F)F)ccc3[nH]2)c1OC` (stereo not given) [Pantoprazole Sodium Hydrate] returned a cell viability of 1.03. The result for `COc1ccnc(C[S+]([O-])c2nc3cc(OC(F)F)ccc3[nH]2)c1OC` (stereo not given) [Pantoprazole sodium] reads 0.918; that for `Cc1cc(C)c(S(=O)(=O)n2cc(C)cc2C)c(C)c1`, 1.12; that for `Nc1ncnc2c1ncn2C1CCCO1` (stereo not given), 0.981. The result for `Nc1ccn([C@@H]2O[C@H](CO)[C@@H](O)[C@@H]2O)c(=O)n1` [Cytarabine] reads 0.825; that for `Nc1ccc(S(=O)(=O)Nc2ccccn2)cc1` [Sulfapyridine], 1.23.

With `O=C(O)[C@H]1O[C@@H](Oc2cc3oc(-c4ccccc4)cc(=O)c3c(O)c2O)[C@H](O)[C@@H](O)[C@@H]1O` [Baicalin], the cell viability came out at 1.04. The result for `Cn1cc(-c2ccncc2)c(-c2ccc(OCc3ccc4ccccc4n3)cc2)n1` reads 1.07; that for `C=CC(=O)Nc1ccc(CN2C(=O)N(c3cc(OC)cc(OC)c3)Cc3cnc(Nc4ccc(N5CCN(C)CC5)cc4)nc32)cc1`, 0.753. For `COc1ccc(C[C@@H]2c3cc(Oc4cc(C[C@@H]5c6cc(OC)c(OC)cc6CCN5C)ccc4O)c(OC)cc3CCN2C)cc1` [Neferine] the value was 1.2.

As for `COC1CCN(C(=O)c2cc(Cc3n[nH]c(=O)c4ccccc34)ccc2F)CC1`, the cell viability was determined as 0.874. For `Oc1c(F)cc(-c2cnccc2-c2ccc(N3CCOCC3)cc2)cc1F` the value was 0.915; for `CCCCCCCCCCCCc1ccc(S(=O)(=O)Nc2nncs2)cc1`, 0.924; for `OC(CCCN1CCCCC1)(c1ccccc1)c1ccccc1` [Diphenidol hydrochloride], 0.938. Take `CCN(CC)CCOC(=O)C(c1ccccc1)c1ccccc1` [Adiphenine hydrochloride]: the cell viability is 1.08.

`C[C@H]1[C@H](C)CC[C@]2(C(=O)O)CC[C@]3(C)C(=CC[C@@H]4[C@@]5(C)C[C@@H](O)[C@H](O)[C@@](C)(CO)[C@@H]5CC[C@]43C)[C@H]12` [Asiatic acid] had a cell viability of 1.01. In the case of `CC(CCc1ccccn1)(CCc1ccccn1)C(=O)c1ccccc1` [JAK2 Inhibitor V], the cell viability was 1.03. On to `CCOC(=O)c1ccc(N)cc1` [Benzocaine], for which the cell viability was found to be 0.806. Regarding `CN1CCN(c2c(F)cc3c(=O)c(C(=O)O)cn4c3c2OCN4C)CC1` [Marbofloxacin], the cell viability was determined as 0.957. The result for `Cc1ccc(S(=O)(=O)NC(=O)NN2CCCCCC2)cc1` [Tolazamide] reads 0.958. For `COC(=O)c1ccc([C@H]2c3[nH]c4ccccc4c3C[C@H](C(=O)OC)N2C(=O)CCl)cc1` the value was 0.0417; for `C[C@]12CC[C@@H]3c4ccc(OS(=O)(=O)O)cc4CC[C@H]3[C@@H]1CCC2=O` [Estropipate], 1.08; for `C=CC(C)(C)c1cc(/C=C/C(=O)c2ccc(O)cc2)c(OC)cc1O` [Licochalcone A], 1. The molecule `CC(=O)OCC1=CO[C@@H](OC(=O)CC(C)C)[C@H]2C1=C[C@H](OC(=O)CC(C)C)[C@]21CO1` [Valepotriate] had a cell viability of 1.19.
